Laboratory results: article PMC4336329 (PLoS ONE, 2015)
The campaign covered roughly 310,000 compounds. About 2,200 (0.71%) showed an effect of 50% or more. The effect is printed as a negative number. This is one part of the list.

Biological target: human ether-à-go-go-related gene (hERG) potassium channel (human, UniProt Q12809)
Assay: primary screen, population patch clamp on CHO cells stably expressing hERG

Sequence of human ether-à-go-go-related gene (hERG) potassium channel (Q12809 whole entry, looked up): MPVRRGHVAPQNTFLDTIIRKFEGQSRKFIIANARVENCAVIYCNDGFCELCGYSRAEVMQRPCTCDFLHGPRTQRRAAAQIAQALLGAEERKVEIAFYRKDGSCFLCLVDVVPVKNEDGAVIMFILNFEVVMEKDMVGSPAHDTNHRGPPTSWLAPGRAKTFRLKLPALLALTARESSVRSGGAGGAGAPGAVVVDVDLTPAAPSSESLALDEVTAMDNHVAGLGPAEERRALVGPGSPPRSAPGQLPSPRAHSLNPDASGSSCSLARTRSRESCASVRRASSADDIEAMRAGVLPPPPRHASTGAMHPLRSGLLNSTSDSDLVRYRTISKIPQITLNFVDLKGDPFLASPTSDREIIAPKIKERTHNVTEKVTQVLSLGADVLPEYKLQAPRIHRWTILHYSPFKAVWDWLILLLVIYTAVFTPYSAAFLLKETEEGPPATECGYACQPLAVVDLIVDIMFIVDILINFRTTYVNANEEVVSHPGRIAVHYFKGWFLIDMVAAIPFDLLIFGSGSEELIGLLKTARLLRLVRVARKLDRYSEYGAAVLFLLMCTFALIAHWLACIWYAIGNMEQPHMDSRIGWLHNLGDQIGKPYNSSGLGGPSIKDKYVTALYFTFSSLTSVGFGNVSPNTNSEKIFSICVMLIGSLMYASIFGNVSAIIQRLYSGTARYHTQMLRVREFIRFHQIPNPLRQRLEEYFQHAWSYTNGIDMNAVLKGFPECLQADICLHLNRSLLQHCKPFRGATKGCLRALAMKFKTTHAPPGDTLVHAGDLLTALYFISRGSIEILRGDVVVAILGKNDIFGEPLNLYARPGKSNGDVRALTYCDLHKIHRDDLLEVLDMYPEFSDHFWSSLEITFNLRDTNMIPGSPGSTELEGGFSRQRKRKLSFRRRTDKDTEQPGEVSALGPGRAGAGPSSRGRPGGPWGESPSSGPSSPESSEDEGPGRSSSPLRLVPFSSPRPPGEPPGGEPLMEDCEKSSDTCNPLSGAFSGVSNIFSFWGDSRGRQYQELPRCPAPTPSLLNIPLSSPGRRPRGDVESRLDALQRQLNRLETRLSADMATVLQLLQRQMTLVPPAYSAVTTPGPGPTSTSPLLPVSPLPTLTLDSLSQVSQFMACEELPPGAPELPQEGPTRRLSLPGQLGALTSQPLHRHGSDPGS

SMILES | hERG current change (%, negative = inhibition) at 1uM [%]
C/C(=N\NC(=O)c1c[nH]c2ccccc12)c1ccccn1 | 13.4
COc1cc(/C=C(\C#N)c2nc3ccccc3[nH]2)c([N+](=O)[O-])cc1OCc1ccccc1 | 13.9
CCCNC(=O)c1ccc2c(=O)c(O)c(-c3ccc(C)cc3)[nH]c2c1 | -11
Cc1ccc(COc2ccc(CNCCCN3CCCCCC3=O)cc2)cc1 | 16.1
COc1ccc(NC(=O)c2sc3nc(-c4cccnc4)ccc3c2N)cc1 | 4.14
Cc1ccc(OCC(=O)Nc2cccc(C)n2)c(C)c1 | 11.6
COc1ccc2oc(=O)c(/C(N)=N/NC(=O)c3ccncc3)cc2c1 | 10
CSc1cccc(NC(=O)C2CCCN(S(=O)(=O)c3ccc(F)cc3)C2)c1 (stereo not shown) | 10.6
COc1cc(NC(=O)C2CCCCN2)ccc1OCC(C)C (stereo not shown) | 5.55
c1ccc2c(c1)nnn2Cc1nnc2sc(-c3ccc4c(c3)OCCO4)nn12 | 9.84
COC(=O)c1sccc1NC(=S)N1CCN(c2ccccc2)CC1 | -1.2
O=c1[nH]c(=O)n(CCC2=CCCCC2)c(O)c1C=Nc1cccc(F)c1 | -4.58
O=C(c1cc2ccccn2n1)N1CCN(c2cccc(C(F)(F)F)c2)CC1 | 0.592
NC(=O)C1CCN(C(=O)C2CC(=O)N(c3ccc4c(c3)OCCO4)C2)CC1 (stereo not shown) | 9.68
Cc1ccc(S(=O)(=O)N(C)CC(=O)N2CCCCCCC2)cc1 | -1.03
CCN1CCN(c2nc3c(c(=O)n(C)c(=O)n3C)n2CCSc2ncccn2)CC1 | 13.5
CCCCOP(=O)(OCCCC)C(Nc1ccc(C(=O)OCC)cc1)c1ccncc1 (stereo not shown) | -2.48
CCN1C(=O)c2cccc3c(S(=O)(=O)Nc4ccncc4)ccc1c23 | 10.5
CCC(=O)Nc1ccc(/C(C)=N/NC(=O)c2c(-c3ccccc3Cl)noc2C)cc1 | 0.655
CCOC(=O)C1CCN(S(=O)(=O)c2ccc(Br)c(OCC)c2)CC1 | 0.854
I.NC(Cc1ccccc1)C(O)(c1ccccc1)c1ccccc1 (stereo not shown) | 12.2
CCN(CC)C1CCN(Cc2cn[nH]c2-c2ccc(OC)c(F)c2)C1 (stereo not shown) | -4.96

SMILES | hERG current change (%, negative = inhibition) at 1uM [%]
CN(Cc1ccccc1)S(=O)(=O)c1ccc(Cl)c(C(=O)N2CCC2)c1 | 3.15
S=C(Nc1ccccc1Cl)N1CCCC(c2ccccc2)=N1 | 13.8
CC1=NN(S(=O)(=O)c2ccc(C)cc2)C(=O)c2ccccc2O1 | 1.84
CCOc1ccc(C2CC(c3cccc(OC)c3)Nc3ncnn32)cc1 (stereo not shown) | -12
O=C(O)c1ccc(Nc2ncc([N+](=O)[O-])cc2[N+](=O)[O-])cc1 | 13.5
CCOP(=O)(OCC)c1cccc(O)c1 | 2.18
CCOC(=O)c1sc(=S)n(-c2ccc(Cl)cc2)c1C | 7.71
CN(C)CC(=O)c1ccc(-c2ccccc2)cc1 | 7.2
O=C(NC(Cc1c[nH]c2ccccc12)C(=O)O)c1ccc(Br)cc1 (stereo not shown) | 16.8
CC1CCc2nn(CC(=O)N3CCc4ccccc43)cc2C1 (stereo not shown) | 1.89
CC(C)CNS(=O)(=O)c1ccc(S(=O)(=O)N2CCC3(CC2)OCCO3)cc1.O=C(O)C(=O)O | 11.6
Cc1c[n+](CC(=O)c2ccccc2)c(C)cn1.[Br-] | 11.9
CCCC(C)NC(=O)Cn1c(=O)c2c(ncn2CCC(C)C)n(Cc2ccccc2)c1=O (stereo not shown) | 12.1
O=C(CCCN1C(=O)c2ccccc2C1=O)NCCC1=CCCCC1 | 1.57
COc1ccc(CCNC(=O)CCc2ccc(S(=O)(=O)NC(C)C)cc2)cc1 | 5.08
Cc1cccc2c1cnn2C(=O)CCC(=O)N1CCC(C)CC1 | 6.31
FC(F)(F)c1ccccc1CNCCc1c[nH]c2ccccc12.O=C(O)C(=O)O | 7.44
Cc1ccc(NC(=S)N(Cc2ccco2)C2CCN(C(C)C)CC2)cc1 | 2.08
O=C(CN1CCCN(Cc2ccc(F)cc2Cl)C1=O)NC1CCCCCCC1 | 2.79
COC(=O)c1cc(Br)c(=O)n(CCc2ccc(O)cc2)c1.Cl | 6.1
O=C(COc1ccccc1Cl)N1CCN(c2ccc([N+](=O)[O-])c(N3CCOCC3)c2)CC1 | 14.6
COc1cc(/C=C2\N=C(c3c(-c4ccccc4)noc3C)OC2=O)ccc1OC(C)=O | 8.68

SMILES | hERG current change (%, negative = inhibition) at 1uM [%]
COc1cc(C2=NOC(C(=O)NC3CCCCC3)C2)cc(OC)c1OC (stereo not shown) | 0.584
FC(F)Sc1ccc(NC(=S)NC(c2ccccc2)c2ccccc2)cc1 | 7.3
COc1cccc(/C=C(/C#N)c2ccc(F)cc2)c1OCc1cccc(C(=O)O)c1 | 17.3
CCCS(=O)(=O)N1CCCC(c2nc(-c3cccc(OC)c3)no2)C1 (stereo not shown) | -0.844
COc1cccc(C2C3=C(Nc4[nH]n(-c5ccccc5)c(=O)c42)c2ccccc2C3=O)c1 (stereo not shown) | 21.2
CC1(c2cccc(Br)c2)NC(=O)N(CC(=O)Nc2ccc(S(N)(=O)=O)cc2)C1=O (stereo not shown) | 17.9
COC(=O)c1sc2ccccc2c1-n1cccc1C(=O)C(=O)Nc1ccc(OC)cc1 | -2.06
CC(=O)NC1C(OCc2ccccc2)OC2COC(C)(C)OC2C1O (stereo not shown) | 10.2
Cc1nn(Cc2ccc(C(=O)N/N=C/c3ccncc3)o2)c(C)c1Cl | -20.3
CCC(=O)N1CCN(c2nc3ccccc3s2)CC1 | -2.76
COc1ccc(C(C#N)N2CCC(c3ccccc3)=N2)cc1OC (stereo not shown) | 2.21
CC(C)C(=O)NC(c1ccco1)c1ccc2cccnc2c1O (stereo not shown) | 7.53
CCOC(=O)c1cnc(-n2nc(C)cc2C)nc1NNc1nc(C)cc(C)n1 | 12.8
CCOC(=O)C1(C(=O)O)NC(=O)CC1c1ccccc1 (stereo not shown) | 1.37
CN1CCN(Cc2ccc(OCc3ccccc3)cc2)CC1 | -2.71
COc1cc(CCCN2C(N)=NC[C@@H]2Cc2ccc(O)cc2)cc(OC)c1OC | 17.3
O=C(NC1=NCCS1)C12CC3CC(C1)CC(C(=O)NC1=NCCS1)(C3)C2 | 20.6
Cc1nn2c(=O)c(NC(=O)c3ccc(F)cc3)cnc2s1 | 14.9
CC(=O)C(C)Oc1ncn(-c2ccccc2)n1 (stereo not shown) | 7.61
Cc1cccc(C(=O)Nc2ccc(N3CCN(c4ccc(C(F)(F)F)cn4)CC3)nc2)c1 | 12.9
O=C(Nc1ccon1)Nc1cc(Cl)ccc1Cl | 3.97
Clc1ccc(-c2nnc(-c3ccc(Br)o3)o2)c(Cl)c1 | 7.1

SMILES | hERG current change (%, negative = inhibition) at 1uM [%]
Cc1cc(C)c(NC(=O)CNC(=O)c2cc(C3CC3)nn2-c2ccccc2)c(C)c1 | 3.93
COc1ccc(NC(=O)N2CCCC(c3nc(-c4ccc(F)cc4)no3)C2)cc1 (stereo not shown) | 6.57
O=[N+]([O-])c1cc([N+](=O)[O-])c2nonc2c1Nc1ccc(O)cc1 | 2.03
COc1ccccc1C(=O)COC(=O)c1ccc(-n2cnnn2)cc1 | 11.9
C/C(=N/NC(=O)CNC(=O)CCc1ccccc1)c1ccc(Cl)cc1 | 3.37
COCCN(C(=O)Cc1cccs1)c1nnc(-c2cccnc2)s1 | 7.1
Nc1nc(SCC(=O)c2cc3ccccc3o2)n[nH]1 | -0.91
O=C(CCc1ccccc1)NNC(=O)c1ccc(Br)cc1 | 11
Cc1ccc(CSCCNC(=O)CN(c2cc(C)ccc2C)S(C)(=O)=O)cc1 | -12.4
CCCOc1ccc(NC(=O)CNC(=O)c2cc(OC)cc(OC)c2)cc1OCCC | 10.4
O=C1c2ccccc2C(Nc2ccc(Cl)cn2)N1Cc1ccccc1 (stereo not shown) | 13.2
CCOC(=O)C1(CCOc2ccccc2)CCN(Cc2cccc3c2OCO3)CC1 | -7.1
COc1ccc(/C=N\NC(=O)c2ccccc2Br)cc1COc1ccccc1 | 2.17
c1ccc(-n2ncc3c(N4CCN(CCOc5cccc6ccccc56)CC4)ncnc32)cc1 | 13.4
CCOc1cc(-c2nc(-c3cc(OC)c(OC)c(OC)c3)no2)cc(OCC)c1OCC | 18.5
O=C(COC(=O)Cc1cccs1)Nc1ccccc1Cl | 13.9
Cc1ccc(-c2nc(-c3ccccn3)no2)cc1[N+](=O)[O-] | 13.8
COc1ccc(C(=O)NNC(=S)NC(=O)C(C)(C)C)cc1 | 11.5
N#Cc1nc(-c2ccccc2)oc1N1CCC(C(N)=O)CC1 | 16.8
Cc1ccc2nc(-c3ccc(NC(=S)NCCC(C)C)cc3)sc2c1 | 6.84
COc1ccc(Cc2nnc(N/N=C/c3ccccc3O)[nH]c2=O)cc1OC | -0.0106
COc1ccc(S(=O)(=O)N2CCN(C(=O)NCc3ccc(C)cc3)CC2)cc1 | 14.9
